# The whole screen tested about 410,000 compounds, of which about 6,400 (1.6%) were called active. This list was built around the results that the source calls inconclusive (neither active nor inactive); the mix of calls is not that of the screen. The call rests on the fitted dose curve; in most records, active means well fitted inhibition curve with a large enough effect; inconclusive means small, poorly fitted or top-dose-only effect; inactive means no such curve, though single readings can be large or run the other way. Potencies of inconclusive entries are left out as doubtful fits.
# Target: Glucagon-like peptide 1 receptor (Homo sapiens) (UniProt P43220)
# Chain of UniProt P43220 (P43220 whole entry, looked up): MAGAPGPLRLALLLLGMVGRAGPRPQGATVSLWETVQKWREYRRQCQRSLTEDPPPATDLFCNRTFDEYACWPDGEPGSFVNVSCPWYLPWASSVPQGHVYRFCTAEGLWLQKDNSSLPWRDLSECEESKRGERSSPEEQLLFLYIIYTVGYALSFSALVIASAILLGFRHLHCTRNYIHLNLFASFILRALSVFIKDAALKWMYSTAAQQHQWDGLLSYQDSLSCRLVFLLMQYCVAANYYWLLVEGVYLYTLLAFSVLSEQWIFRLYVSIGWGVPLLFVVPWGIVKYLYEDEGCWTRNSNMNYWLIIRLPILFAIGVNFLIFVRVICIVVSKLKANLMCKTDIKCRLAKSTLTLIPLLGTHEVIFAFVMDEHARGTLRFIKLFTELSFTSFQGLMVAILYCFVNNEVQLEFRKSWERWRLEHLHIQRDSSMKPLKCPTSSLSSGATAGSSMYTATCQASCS
# Experiment: qHTS of GLP-1 Receptor Inverse Agonists (Inhibition Mode); further: nearly all actives have a fitted effect of over 55% in size
# Conditions: HEK293 GLP-1R CRE-luciferase, luminescence, 24 h, GLP-1R form is constitutively active; activity change, negative = inhibition: at 38.3 µM (top of the series) unless noted
# Method in brief: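 HEK293 cells stably co-expressing constitutively active GLP-1R and a cAMP-responsive luciferase reporter were seeded in DMEM with 10% Nu serum, given compounds after 12 h, and incubated 24 h at 37 deg C. Luminescence was then read.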
# On the % scale 0 is the no-effect control and ±100 the full control effect; potency means the concentration at half of the fitted maximal effect; tags describe the fitted curve by direction and shape.
SMILES,Potency,"activity change, negative = inhibition"
CN1CCN(Cc2nc(Cc3ccccc3)no2)CC1c1ccccc1 (stereo unspecified),"inconclusive [inhibitor, partial curve, poor fit]",–
Cc1ccc(OCCn2c(C3CC(=O)N(Cc4ccccc4)C3)nc3ccccc32)cc1 (stereo unspecified),"inconclusive [inhibitor, single point]",–
CSc1cccc(NC(=O)Nc2ccccc2)c1,"inconclusive [inhibitor, single point]",–
Cn1c(NC(=O)C2c3ccccc3Oc3ccccc32)cc(=O)n(C)c1=O,"inconclusive [inhibitor, single point]",–
CCN(CC(=O)Nc1ccc(NC(C)=O)cc1)C(=O)CCCOc1ccc(C(C)(C)C)cc1,"inconclusive [inhibitor, single point]",–
Cc1ccc(C)c(OCC(=O)NCCN(C)C)c1,"inconclusive [inhibitor, partial curve, poor fit]",–
CCOC(=O)c1cccc(NC(=O)N2CCC(CN3CCc4ccccc4C3)CC2)c1,"inconclusive [inhibitor, partial curve, poor fit]",–
Cc1nc(Nc2ccc(C(=O)O)cc2)sc1-c1ccccc1,"inconclusive [inhibitor, full curve, poor fit]",–
Cc1cc(Sc2nnc(/N=C/N(C)C)s2)c2ccccc2n1,active: 3.16 µM,–
CCC(CC)C(=O)Nc1nnc(CCc2ccccc2)s1,"inconclusive [inhibitor, partial curve, poor fit]",–
COc1cccc(NC(=O)C(=O)NCCc2csc(-c3ccc(C(F)(F)F)cc3)n2)c1,–,inactive: 18.6%
CCOc1ccccc1CNC(=O)C1CCN(S(=O)(=O)c2c(C)noc2/C=C/c2ccc(C)cc2)CC1,–,inactive: 17.1%
O=C(Cc1c(F)cccc1Cl)NNC(=O)c1ccco1,"inconclusive [inhibitor, partial curve, poor fit]",–
Cc1ccc(C(=O)Nc2ccc(Nc3ccccc3)cc2)cc1Br,"inconclusive [inhibitor, full curve, poor fit]",–
COCCN(C(=O)COC(=O)/C=C/c1ccc(SC)cc1)c1c(N)n(Cc2ccccc2)c(=O)[nH]c1=O,–,inactive: -5.33%
N=c1n(CCN2CCCCC2)c2ccccc2n1CC(O)c1ccco1 (stereo unspecified),"inconclusive [inhibitor, single point]",–
O=C1C(=O)c2ccccc2C(O)=C1CC=C(Cl)Cl,"inconclusive [inhibitor, full curve, poor fit]",–
Fc1ccccc1CNc1ccc(Cl)c(Cl)c1,"inconclusive [inhibitor, single point]",–
COc1ccc(NC(=O)C(C)n2nnc3sc(-c4ccccc4)cc3c2=O)cc1Cl (stereo unspecified),–,inactive: 6.86%
COc1ccc(Nc2nc(NCCN3CCOCC3)nc(Nc3ccc(OC)cc3)n2)cc1,–,inconclusive: -74% [inhibitor]
O=c1c2cc(F)ccc2[nH]c(=S)n1Cc1ccc(F)cc1,"inconclusive [inhibitor, full curve, poor fit]",–

SMILES,Potency,"activity change, negative = inhibition"
COc1cc(S(=O)(=O)N2CCCC2)c(C)cc1C,"inconclusive [inhibitor, single point]",–
COC(=O)[C@@]1(C(C)C)N=C(c2cc(OC)c(OC)c(OC)c2)[C@]2(O1)C(=O)N(C)c1ccc(Br)cc12,"inconclusive [inhibitor, single point]",–
O=C1CC(/C=C/c2cccnc2)=Nc2ccccc2N1,"inconclusive [inhibitor, single point]",–
OC(c1ccc(F)cc1)c1nc(-c2csc3ccccc23)cs1 (stereo unspecified),"inconclusive [inhibitor, partial curve, poor fit]",–
CC(=O)COc1cccc2ccc(/C=C/c3ccc(Br)s3)nc12,"inconclusive [inhibitor, single point]",–
CCC(C)NC(=O)C1CCN(C(=O)c2ccc(-n3ccc4ccccc43)s2)CC1 (stereo unspecified),–,inactive: -14.9%
CCn1c(O)c(/C=C/C=C/C=Nc2ccccc2)sc1=S,–,inactive: 6.87%
Cc1cccc(N2CCN(C(=O)Cn3cnc4sc(C)c(S(=O)(=O)N5CCN(c6ncccn6)CC5)c4c3=O)CC2C)c1 (stereo unspecified),"inconclusive [inhibitor, single point]",–
FC(F)(F)c1cccc(-c2nnn3c2nc(NC2CCCCC2)c2ccccc23)c1,–,inactive: 5.92%
Cc1ccc(-n2nc(C(=O)N3CCOCC3)cc2-c2ccc(Cl)cc2)cc1,"inconclusive [inhibitor, partial curve, poor fit]",–
Nc1nc2ccccc2n1CCOc1ccccc1Cl,"inconclusive [inhibitor, single point]",–
Cc1cccc(-c2nc(CSCC(=O)N3CCN(c4ccccc4)CC3)c(C)o2)c1,"inconclusive [inhibitor, partial curve, poor fit]",–
COc1ccc(Cl)cc1S(=O)(=O)N1CCCC(C(=O)NCc2ccccc2)C1 (stereo unspecified),"inconclusive [inhibitor, single point]",–
CC(O)(c1ccc(F)c(F)c1)c1nc(-c2cc3ccccc3o2)cs1 (stereo unspecified),"inconclusive [inhibitor, partial curve]",–
COc1cc(N)c(Cl)cc1C(=O)NC1CCN(Cc2ccccc2)CC1,–,inactive: -22.6%
O=C(NCc1cccnc1)/C(=C\c1ccc(-c2ccc(Cl)c(Cl)c2)o1)S(=O)(=O)c1ccccc1,"inconclusive [inhibitor, full curve, poor fit]",–
COc1cccc(C2=NOC(C(=O)Nc3cc(C)nn3-c3ccccc3)C2)c1OC (stereo unspecified),"inconclusive [inhibitor, partial curve, poor fit]",–
O=C(Nc1nnc(S(=O)(=O)N2CCCCCC2)s1)c1ccccc1Cl,"inconclusive [inhibitor, single point]",–
COc1ccc2c(CN3CCN(Cc4ccccc4)CC3)cc(=O)oc2c1,"inconclusive [inhibitor, single point]",–
COc1cccc(/C=C2\SC(=S)N(CCCC(=O)N3CCCCC3CCO)C2=O)c1 (stereo unspecified),"inconclusive [inhibitor, partial curve, poor fit]",–

# From PubChem BioAssay AID624417 (National Center for Advancing Translational Sciences (NCATS), 2012)
